Reference: PubChem BioAssay AID624202 (National Center for Advancing Translational Sciences (NCATS), 2012)
Screen size: about 380,000 compounds; about 4,000 (1.1%) were called active. The shares of active, inactive and inconclusive entries below differ from those in the screen. Calls follow the shape of the dose curve; as a rule, active = well fitted activation curve with a large enough effect; inconclusive = small, poorly fitted or top-dose-only effect; inactive = no such curve, though single readings can be large or run the other way. Where the call is inconclusive, the potency comes from a doubtful curve fit.

Test: qHTS Assay to Identify Small Molecule Activators of BRCA1 Expression; also: nearly all actives have a fitted effect of over 80% in size
Settings: MCF7-BRCA1-FFLuc reporter, luminescence, 48 h; series mostly up to 46.1 µM
Method in brief: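 Luminescence from a BRCA1-driven firefly luciferase in MCF7 cells was the read-out, taken 15 min after substrate addition following 48 h compound exposure at 37 °C. Data were normalized to a 10 microM genistein control and DMSO vehicle.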
Potency is read from the fitted curve at half-maximal effect; tags tell the direction and shape of the fitted curve.

Compound | Potency
CCN(CC)CCNc1ccc(CO)c2sc3ccccc3c(=O)c12 | inactive
c1ccc2c(Nc3nnc(-c4ccncc4)s3)cccc2c1 | inconclusive: 10 µM [activator, partial curve, poor fit]
Cc1ccccc1N1CC(C(=O)NC2CCCC2)CC1=O (stereo not given) | inactive
CC(/C=N/NC(=O)c1cccc(F)c1)=C\c1ccccc1 | inconclusive: 0.631 µM [activator, full curve, poor fit]
COc1ccc(C2=NN(C(=O)c3ccccc3C(=O)O)C(c3ccccc3O)C2)cc1 (stereo not given) | inconclusive: 15.8 µM [activator, single point]
Cc1ccc(-c2cc(N)n(-c3ccc(C)cc3)n2)cc1 | active: 10 µM
S=c1nc(COc2ccccc2)[nH]c2ccccc12 | inconclusive: 31.6 µM [activator, single point]
Cc1ccc(OCc2cc(C(=O)N(C)CC3CCOCC3)no2)cc1C | inconclusive: 35.5 µM [activator, single point]
Cn1cnnc1SCC(=O)Nc1ccc2nc(SCc3ccccc3)sc2c1 | inconclusive: 2 µM [activator, partial curve, poor fit]
CCc1ccc(C(=O)NC2CCCCC2)s1 | active: 3.55 µM
Cc1ccc(NC(=O)C2(NC(=O)c3cccc(N4C(=O)CSC4c4ccccc4)c3)CCCCC2)cc1 (stereo not given) | inactive
COc1ccc(OC)c(C2CC(=O)N3CN(c4cccc(Cl)c4C)CSC3=C2C#N)c1 (stereo not given) | inactive
NC(=O)c1sc2nc3c(cc2c1N)CCCCCC3 | inconclusive: 15.8 µM [activator, partial curve, poor fit]
N#Cc1c(NC(=O)Cn2nc(C(F)(F)F)c3c2CCCC3)sc2c1CCC2 | inactive
Cc1ccc(NC(=O)Nc2cc(C)on2)cc1 | inconclusive: 10 µM [activator, partial curve, poor fit]
CCOC(=O)c1oc2nc3c(cc2c1N)COC(C)(C)C3 | active: 7.94 µM
Cc1ccc2nc(-c3ccccc3)c(Cc3ccccn3)n2c1 | inconclusive: 14.1 µM [activator, partial curve, poor fit]
CCOC(=O)C1=C(C)OC(=CC=Cc2ccccc2)C1=O | inconclusive: 35.5 µM [activator, single point]
CN=C1S/C(=C\c2ccc(SC)cc2)C(=O)N1C | inconclusive: 22.4 µM [activator, single point]
Cc1ccc(S(=O)(=O)NNC(=O)c2cccs2)c(C)c1 | inconclusive: 35.5 µM [activator, single point]
Cc1ccc(NC(=O)/C(C#N)=C/c2cccs2)c(C)c1 | active: 3.98 µM
Cc1ccc(-c2noc(CN3CCCCC3)n2)cc1 | active: 2.51 µM
CC1(C)CC(=O)c2c(O)cc(OCc3ccc(Br)cc3)cc2O1 | active: 3.55 µM
COc1ccc(CNc2nc(-c3ccccc3)nn2S(=O)(=O)c2ccccc2)cc1 | inconclusive: 20 µM [activator, single point]
Cc1ccc(NC(=S)NCCc2c[nH]c3ccccc23)cc1 | inconclusive: 17.8 µM [activator, single point]

Compound | Potency
COc1ccc(-n2c(Cc3ccccc3)nnc2SCc2nc(-c3cccs3)no2)cc1 | inactive
c1cc(-c2ccc(N3CCOCC3)cc2)n2cnnc2c1 | inconclusive: 15.8 µM [activator, partial curve, poor fit]
COc1ccc(C2=NOC(CNC(=S)N3CCOCC3)C2)cc1 (stereo not given) | inconclusive: 12.6 µM [activator, partial curve, poor fit]
COc1cccc(-n2c(-c3ccccc3)c[nH]c2=S)c1 | inactive
COc1ccc(/C=N/NC(=O)CN2CCS(=O)(=O)CC2)cc1 | inactive
Cc1cc(O)ccc1Nc1cc(-c2cccc(N(C)C)c2)ncn1 | active: 5.62 µM
COC(=O)c1c(-c2ccc(OC)cc2)oc2ccc(-c3ccc(OC)nc3)cc12 | inactive
Cc1oc(-c2cccc(Cl)c2)nc1CN1CCC(C(=O)N2CCN(c3ccccn3)CC2)CC1 | inactive
COc1cc(/C=C2\OC(=O)c3c(OC)cccc32)ccc1O | inconclusive: 28.2 µM [activator, single point]
Cc1occc1C(=O)Nc1ccc2c(c1)OCO2 | active: 3.16 µM
CC(C)C(=O)Nc1cccc(COc2cccc(CN(Cc3ccccc3)C(=O)OC(C)(C)C)c2)c1 | inactive
Oc1ccc(/C=N/Nc2ncc(Cl)cc2Cl)cc1 | active: 12.6 µM
O=C(NC(=S)Nc1ccccc1Br)C1CCCC1 | inconclusive: 11.2 µM [activator, partial curve, poor fit]
Cc1onc(NC(=O)c2ccc(Cl)cc2Cl)c1Br | inconclusive: 14.1 µM [activator, partial curve, poor fit]
Cc1ccc(SCCC(=O)N2CCCC2)cc1 | inconclusive: 11.2 µM [activator, partial curve, poor fit]
CCn1cnc2sc(C(=O)Nc3ccc4c(c3)OCO4)c(C)c2c1=O | inconclusive: 15.8 µM [activator, single point]
Cc1nc2ccc(NC(=O)NCc3ccco3)cc2s1 | inconclusive: 12.6 µM [activator, partial curve, poor fit]
Cc1cccc(C)c1NS(=O)(=O)c1cc2c3c(c1)CC(=O)N3CCC2 | inactive
COc1cccc2cc(-c3csc(NC(=O)CCC(=O)NCCCN4CCC(C)CC4)n3)c(=O)oc12 | inconclusive: 0.355 µM [activator, full curve, poor fit]
CC1CCC(NC(=O)CNC(=O)c2cccs2)CC1 (stereo not given) | inconclusive: 8.91 µM [activator, partial curve, poor fit]
CC(=NCc1ccco1)C1=C(O)c2ccccc2C1=O | inconclusive: 15.8 µM [activator, single point]
COc1ccc(-c2coc3cc(OC(C)=O)c(OC)cc3c2=O)cc1 | active: 10 µM
COc1ccc(C(CNC(=O)c2ccco2)N2CCCC2)cc1 (stereo not given) | inconclusive: 20 µM [activator, partial curve, poor fit]
COc1ccc(OC)c(Cc2nnc(CCC(=O)N3CCCCCC3)o2)c1 | inconclusive: 25.1 µM [activator, single point]
CCCCn1nnc(NC(=O)c2cc3ccccc3o2)n1 | inconclusive: 35.5 µM [activator, single point]

Compound | Potency
O=C(c1cc(-c2ccccc2O)on1)N1CCc2ccccc2C1 | active: 10 µM
Oc1ccc(-c2nc3ccccc3s2)c(O)c1 | inconclusive: 7.08 µM [activator, partial curve, poor fit]
O=C(Nc1ccc(C(=O)NCc2ccc(F)cc2)cc1)C1=CSCCO1 | inconclusive: 14.1 µM [activator, partial curve, poor fit]
O=C(Nc1ccc(C(=O)N2CCCCC2)cc1)C1=CSCCO1 | inconclusive: 2 µM [activator, partial curve, poor fit]
Cc1ccc(-n2c(C)cc(C3=NNC(=NC4CC4)SC3)c2C)cc1C | inconclusive: 1.58 µM [activator, partial curve, poor fit]
CCOC(=O)c1c(NC(=S)Nc2ccccc2)sc2c1CCN(CC)C2 | inactive
N#Cc1ccc(-c2csc(NC3=NCCCCC3)n2)cc1 | inconclusive: 11.2 µM [activator, partial curve, poor fit]
COc1ccccc1CCNC(=O)c1ccc(Br)s1 | active: 8.91 µM
CCCC(=O)OCC(=O)Nc1ccc(N=Nc2ccccc2)cc1 | inconclusive: 2 µM [activator, full curve, poor fit]
Cc1ccsc1/C=N/N1CCN(c2ccccn2)CC1 | inconclusive: 11.2 µM [activator, partial curve, poor fit]
CC(C)OC(=O)c1cccc(C(=O)Oc2ccccc2)n1 | inactive
c1ccc(-c2cn3ccccc3n2)cc1 | inconclusive: 1.26 µM [activator, full curve, poor fit]
CCC(=O)Nc1ccc2nc(C3CC3)n(Cc3ccc(C(C)(C)C)cc3)c(=O)c2c1 | inconclusive: 0.631 µM [activator, full curve, poor fit]
COc1cc(/C=N/NS(=O)(=O)c2ccc(C)cc2)ccc1OCc1cccc(C(=O)O)c1 | inactive
Cn1c(SCC(=O)N2CCN(c3ccccc3)CC2)nnc1-c1cc2ccccc2o1 | inactive
Fc1ccc(CSc2nnc(-c3ccco3)o2)cc1 | inconclusive: 11.2 µM [activator, partial curve, poor fit]
CC(C)(C)SCCNC(=O)c1ccccc1 | inconclusive: 10 µM [activator, partial curve, poor fit]
NS(=O)(=O)c1ccc(NC(=O)/C=C/c2ccco2)cc1 | inactive
CC(=O)Nc1ccc(N=Nc2ccc(O)cc2)cc1 | inconclusive: 2 µM [activator, partial curve, poor fit]
O=C(Nc1ccc2c(c1)OCO2)c1cc(C2CCCCN2S(=O)(=O)Cc2ccccc2)on1 (stereo not given) | inconclusive: 2.82 µM [activator, full curve, poor fit]
COc1ccc2ccccc2c1/C=N/NC(=S)NCCN1CCOCC1 | inactive
COc1cccc(/C=C2\SC(=S)N(CCCC(=O)N(CCO)c3ccccc3)C2=O)c1 | inactive
COCCCC1CCN(C(=O)c2cc(COc3cc(C)ccc3C)on2)CC1 | active: 3.16 µM
O=C(Cn1c(=O)n(-c2ccc(F)cc2)c(=O)c2sc3ccccc3c21)NC1CCCC1 | inactive
COc1ccc(CSc2nc3ccncc3n2CC(=O)Nc2cc(C)cc(C)c2)cc1 | inconclusive: 7.08 µM [activator, partial curve, poor fit]
